{"source": "PubChem BioAssay AID1645887", "about": "(National Center for Advancing Translational Sciences (NCATS), 2021)", "note": "Several values for one entry are separate records, joined by “and”; a condition that tells them apart may be missing. Identical values can stand only once. Out of some 16,000 compounds screened, about 40 (0.2%) were called active. About 1% were inconclusive and are not listed. The call rests on the fitted dose curve; in most records, active means well fitted activation curve with a large enough effect; inconclusive means small, poorly fitted or top-dose-only effect, or another doubt; inactive means no such curve, though single readings can be large or run the other way. Some of the results follow. On the % scale 0 is the no-effect control and ±100 the full control effect.", "data": [{"target": "Rap guanine nucleotide exchange factor 4 (Homo sapiens) (UniProt Q8WZA2)", "sequence (Q8WZA2 whole entry, looked up)": "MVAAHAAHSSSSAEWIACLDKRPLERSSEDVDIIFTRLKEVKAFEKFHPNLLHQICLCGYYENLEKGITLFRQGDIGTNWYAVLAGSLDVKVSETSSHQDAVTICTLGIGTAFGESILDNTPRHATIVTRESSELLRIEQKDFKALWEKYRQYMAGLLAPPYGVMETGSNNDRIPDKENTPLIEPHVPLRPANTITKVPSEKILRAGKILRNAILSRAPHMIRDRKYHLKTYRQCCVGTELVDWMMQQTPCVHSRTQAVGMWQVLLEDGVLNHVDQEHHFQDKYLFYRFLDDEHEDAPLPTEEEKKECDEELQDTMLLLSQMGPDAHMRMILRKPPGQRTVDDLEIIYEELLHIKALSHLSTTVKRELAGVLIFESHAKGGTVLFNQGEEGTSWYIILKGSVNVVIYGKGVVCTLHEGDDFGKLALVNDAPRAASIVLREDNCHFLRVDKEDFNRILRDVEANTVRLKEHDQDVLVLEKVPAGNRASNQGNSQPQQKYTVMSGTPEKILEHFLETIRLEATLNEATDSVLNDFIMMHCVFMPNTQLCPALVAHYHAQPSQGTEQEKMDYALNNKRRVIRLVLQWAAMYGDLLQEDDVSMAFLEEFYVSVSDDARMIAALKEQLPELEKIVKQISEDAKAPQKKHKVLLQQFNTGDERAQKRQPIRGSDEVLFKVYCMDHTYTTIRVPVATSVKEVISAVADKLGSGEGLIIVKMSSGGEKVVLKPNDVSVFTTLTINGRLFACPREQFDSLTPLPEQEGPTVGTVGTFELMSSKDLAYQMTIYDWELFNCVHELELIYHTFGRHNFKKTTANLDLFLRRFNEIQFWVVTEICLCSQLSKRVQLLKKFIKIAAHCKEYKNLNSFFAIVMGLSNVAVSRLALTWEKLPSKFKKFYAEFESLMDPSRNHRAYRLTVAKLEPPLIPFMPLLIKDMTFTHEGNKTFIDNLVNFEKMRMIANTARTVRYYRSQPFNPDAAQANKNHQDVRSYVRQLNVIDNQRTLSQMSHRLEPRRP", "experiment": "Validation qHTS for agonist of cAMP-regulated guanine nucleotide exchange factor 4 (EPAC2);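 further: exchange makes BODIPY-GDP fluorescence drop when released from Rap1B; series mostly up to about 150 µM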", "settings": "EPAC2 Rap1B BODIPY-GDP exchange, fluorescence; activation: hits give high values", "in_short": "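Fluorescent exchange assay: 100 nM EPAC2 with 250 nM RAP1B-BODIPY-GDP and 50 uM GDP; compound added, 5 min at room temperature, then read (ex 480/em 540 nm) every 5 min for 30 min. Normalized to 6.5 mM cAMP agonist control.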", "values": [{"smiles": "Clc1ccc(N2CC3CCC(C2)N3)nn1", "activation": "inactive: -40.9%"}, {"smiles": "CCCCCN(C)CCC(O)(P(=O)(O)O)P(=O)(O)O", "activation": "inactive: -5.23% and inactive: -20%"}, {"smiles": "Cc1cccc(C)c1NC1=NCCCS1", "activation": "inactive: 16.4% and inactive: 18.9% and inactive: -40.1%"}, {"smiles": "Nc1ccc(N)cc1", "activation": "inactive: -17.1%"}, {"smiles": "COc1ccc2c(c1O)-c1cc(O)cc3c1[C@@H](C2)N(C)CC3", "activation": "inactive: 6.95%"}, {"smiles": "CC(=O)O[C@H]1C[C@H](O[C@H]2[C@@H](O)C[C@H](O[C@H]3[C@@H](O)C[C@H](OC4CC[C@@]5(C)[C@H](CC[C@@H]6[C@@H]5CC[C@]5(C)[C@@H](C7=CC(=O)OC7)CC[C@]65O)C4)O[C@@H]3C)O[C@@H]2C)O[C@H](C)[C@H]1O[C@@H]1O[C@H](CO)[C@@H](O)[C@H](O)[C@H]1O", "note": "(some centres undefined)", "activation": "inactive: -6.18%"}, {"smiles": "CC(C)C[C@H]1C(=O)N2CCC[C@H]2[C@]2(O)O[C@](NC(=O)[C@@H]3C[C@@H]4c5cccc6[nH]cc(c56)C[C@H]4N(C)C3)(C(C)C)C(=O)N12", "activation": "inactive: 7.01%"}, {"smiles": "CCC(N)Cc1c[nH]c2ccccc12", "note": "(centres undefined)", "activation": "inactive: -4.8% and inactive: -19.5%"}, {"smiles": "O=c1cccc2n1CC1CC2CN(CCO)C1", "note": "(centres undefined)", "activation": "inactive: -9.32%"}, {"smiles": "C[C@@H]1O[C@@H](O[C@H]2C[C@@H](O)[C@]3(CO)[C@@H]4C(CC[C@]3(O)C2)[C@@]2(O)CC[C@H](C3=CC(=O)OC3)[C@@]2(C)C[C@H]4O)[C@H](O)[C@H](O)[C@H]1O", "note": "(some centres undefined)", "activation": "inactive: 10.9% and inactive: -11.2%"}, {"smiles": "CC(C)(O)[C@H]1O[C@@H]2CC[C@]3(C)[C@@]4(C)c5[nH]c6ccccc6c5C[C@@H]4CC[C@]3(O)C2=CC1=O", "activation": "inactive: -37.9%"}, {"smiles": "CN1CCc2cc3c(cc2C1C1OC(=O)c2c1ccc1c2OCO1)OCO3", "note": "(centres undefined)", "activation": "inactive: -3.64% and inactive: 16.2%"}, {"smiles": "CC[C@H](Oc1ccc(Cl)cc1)C(=O)OC1C[C@H]2CC[C@@H](C1)N2C", "note": "(some centres undefined)", "activation": "inactive: -7.14%"}, {"smiles": "CCCCC/C=C\\C/C=C\\C/C=C\\C/C=C\\CCCC(=O)Nc1ccc(O)cc1", "activation": "inactive: -58.9%"}, {"smiles": "O=C(/C=C\\c1ccc(Cl)cc1)N[C@@]12CCC(=O)[C@@H]3Oc4c(O)ccc5c4[C@@]31CCN(CC1CC1)[C@@H]2C5", "activation": "inactive: -14.3%"}, {"smiles": "CCNC(=O)[C@H]1O[C@@H](n2cnc3c(N)ncnc32)[C@H](O)[C@@H]1O", "activation": "inactive: -6.22% and inactive: -6.21% and inactive: -31.1%"}, {"smiles": "COc1ccc(C[C@H]2NC[C@H](O)[C@@H]2OC(C)=O)cc1", "activation": "inactive: -11.8%"}, {"smiles": "O=C(O)/C=C\\CO", "activation": "inactive: -5.88%"}, {"smiles": "C[C@@H]1[C@@H]2Cc3ccc(O)cc3[C@@]1(C)CCN2CCc1ccccc1", "activation": "inactive: 0.171%"}, {"smiles": "[N-]=[N+]=NCCN1CCC(O)CCC1=O", "note": "(centres undefined)", "activation": "inactive: -26.2%"}, {"smiles": "CC(=O)Oc1ccc(Cl)c2cccnc12", "activation": "inactive: -5.48%"}, {"smiles": "COc1ccc(C(=O)c2c(C)n(CCN3CCOCC3)c3cc(I)ccc23)cc1", "activation": "inactive: 6.23%"}, {"smiles": "O=S(=O)(c1ccc(Cl)cc1)c1ccc(Cl)cc1", "activation": "inactive: -20.2%"}, {"smiles": "c1ccc(N2CCC3(CCNCC3)CC2)cc1", "activation": "inactive: 4.43%"}, {"smiles": "COC(=O)C(Cl)C(=O)OC", "activation": "inactive: -20.1%"}, {"smiles": "O=C(c1ccncc1)N1CCC2(CC1)CN(Cc1ccccc1)C2", "activation": "inactive: -10.5%"}, {"smiles": "CN1CC[C@@]2(C)c3cc(OC(=O)Nc4ccccc4)ccc3N(C)[C@@H]12", "activation": "inactive: 4.17% and inactive: -19%"}, {"smiles": "Oc1ccc(Cl)cc1", "activation": "inactive: -20.1% and inactive: 5.79%"}, {"smiles": "CC(C)c1c(CN(C)C(C)Cc2ccccc2)n(C)n(-c2ccccc2)c1=O", "note": "(centres undefined)", "activation": "inactive: -1.26%"}, {"smiles": "N#CCCN", "activation": "inactive: -28.7%"}, {"smiles": "CCCCCCCCCCCCCC(=O)O[C@@H]1[C@@H](C)[C@@]2(O)[C@@H](C=C(CO)C[C@@]3(O)C(=O)C(C)=C[C@@H]23)C2C(C)(C)[C@@]21OC(C)=O", "note": "(some centres undefined)", "activation": "inactive: -81.7%"}, {"smiles": "C[C@]12CC[C@@H](O)C[C@H]1CC[C@@H]1[C@H]2CC[C@]2(C)C(=O)CC[C@@H]12", "activation": "inactive: -0.28%"}, {"smiles": "N[C@@H](Cc1ccc(Oc2cc(I)c(O)c(I)c2)c(I)c1)C(=O)O", "activation": "inactive: -16.5%"}, {"smiles": "CNC(=O)Oc1cccc2c1OC(C)(C)O2", "activation": "inactive: -5.04%"}, {"smiles": "O=c1[nH]c(=O)n(Cl)c(=O)n1Cl", "activation": "inactive: -0.789%"}, {"smiles": "CC(C)NC(=O)N1CCC2(CC1)CCN(C(=O)Oc1ccccc1)CC2", "activation": "inactive: -16.7%"}, {"smiles": "CCCCN(CC)c1c([N+](=O)[O-])cc(C(F)(F)F)cc1[N+](=O)[O-]", "activation": "inactive: 6.04%"}, {"smiles": "CN1CC[C@@]2(C)c3cc(O)ccc3N(C)[C@@H]12", "activation": "inactive: 1.23%"}, {"smiles": "CC(=O)OC1CCC23C(=O)OC45CCC(C6=CC(=O)OC6)C4(C)CCC2C5CCC3(O)C1", "note": "(centres undefined)", "activation": "inactive: -5.48%"}]}]}
